# Laboratory results reported in paper PMC4336329 (PLoS ONE, 2015).
# Screen size: about 310,000 compounds; about 2,200 (0.71%) showed an effect of 50% or more. Effects have a minus sign here. The list shows a part of the results.
# Biological target: human ether-à-go-go-related gene (hERG) potassium channel (human, UniProt Q12809)
# Assay: primary screen, population patch clamp on CHO cells stably expressing hERG
# Chain of human ether-à-go-go-related gene (hERG) potassium channel (Q12809 whole entry, looked up): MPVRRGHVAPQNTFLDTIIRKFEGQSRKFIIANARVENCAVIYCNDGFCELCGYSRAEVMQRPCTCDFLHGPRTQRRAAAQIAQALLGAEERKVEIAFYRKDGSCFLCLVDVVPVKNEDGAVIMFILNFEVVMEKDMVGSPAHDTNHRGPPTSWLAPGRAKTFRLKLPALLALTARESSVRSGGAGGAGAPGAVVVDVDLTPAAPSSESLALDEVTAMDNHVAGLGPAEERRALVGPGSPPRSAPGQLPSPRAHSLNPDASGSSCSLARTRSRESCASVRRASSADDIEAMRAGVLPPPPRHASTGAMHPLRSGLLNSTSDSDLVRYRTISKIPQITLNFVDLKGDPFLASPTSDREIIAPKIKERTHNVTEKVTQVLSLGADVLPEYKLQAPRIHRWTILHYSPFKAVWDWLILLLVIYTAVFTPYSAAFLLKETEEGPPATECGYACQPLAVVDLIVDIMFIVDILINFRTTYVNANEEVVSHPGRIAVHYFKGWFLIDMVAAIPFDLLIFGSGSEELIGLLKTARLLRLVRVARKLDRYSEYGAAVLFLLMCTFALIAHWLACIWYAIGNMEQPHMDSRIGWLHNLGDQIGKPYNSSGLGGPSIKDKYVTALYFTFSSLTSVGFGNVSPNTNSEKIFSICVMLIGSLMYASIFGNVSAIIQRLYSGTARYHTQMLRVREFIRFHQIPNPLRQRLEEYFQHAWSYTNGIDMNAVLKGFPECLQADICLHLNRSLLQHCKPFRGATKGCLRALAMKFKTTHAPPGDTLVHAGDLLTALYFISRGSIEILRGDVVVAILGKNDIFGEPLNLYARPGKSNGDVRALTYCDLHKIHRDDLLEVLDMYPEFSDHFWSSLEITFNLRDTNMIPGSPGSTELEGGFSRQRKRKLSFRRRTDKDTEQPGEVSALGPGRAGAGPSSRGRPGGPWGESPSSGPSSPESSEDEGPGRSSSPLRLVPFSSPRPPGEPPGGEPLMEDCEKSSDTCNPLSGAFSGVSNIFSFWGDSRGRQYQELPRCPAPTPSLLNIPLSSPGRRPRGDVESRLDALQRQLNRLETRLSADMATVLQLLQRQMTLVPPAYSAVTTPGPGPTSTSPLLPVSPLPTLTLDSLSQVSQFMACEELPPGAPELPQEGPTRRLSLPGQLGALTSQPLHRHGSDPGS
row,Compound,"hERG current change (%, negative = inhibition) at 1uM [%]"
1,O=C(CNC(=O)c1ccc(Br)cc1)NCc1cccnc1,15.9
2,N#CC1=C(N)Oc2cc(N)ccc2C1c1cccnc1 (stereo not drawn),4.06
3,O=C(NNC(=O)C1CCN(Cc2ccc(F)cc2Cl)CC1)Nc1ccc([N+](=O)[O-])cc1,-8.18
4,COc1ccc2c(c1OC)C(=O)N1N=C(c3ccc(-c4ccccc4)cc3)CC21 (stereo not drawn),15.4
5,Cl.NCCc1nnc(SCc2ccccc2Cl)o1,24.8
6,CCO[C@H]1OC(C(=O)N2CCN(Cc3ccc4c(c3)OCO4)CC2)=C[C@@H](c2ccccc2)[C@@H]1CCCO,4.36
7,COc1cccc(-n2nc(C(=O)N3CCN(Cc4ccccc4)CC3)c3ccccc3c2=O)c1,-4.12
8,COc1ccc(CCNC(=O)C2CCN(C(=O)c3ccccc3C)CC2)cc1,15.5
9,O=C(c1ccco1)N1CCN(C(=O)c2cnn(-c3cccc(F)c3)c2C2CCNCC2)CC1,15.1
10,COc1ccccc1/C=C/c1ccc2cccc(O)c2n1,12.1
11,Cc1c(C(=O)NC2=NCCS2)oc2ccccc12,-16.6
12,COc1ccccc1S(=O)(=O)Cc1ccc(C(=O)NCc2ccccc2)o1,15.9
13,O=C(NCCCN1CCOCC1)c1cc(-c2ccc(Br)cc2)on1,-31.2
14,Cc1cc(OCc2nn[nH]n2)c2c(-c3ccccc3)cc(=O)oc2c1,2.42
15,CN(C)CCN(Cc1ccco1)S(=O)(=O)c1ccc(-c2ccc(=O)[nH]n2)s1,-22.4
16,CC1(C)C(=O)Nc2ccccc2N1C(=O)CSc1nc(-c2ccccc2)cs1,11.1
17,CCC(C)c1ccccc1N1CC(C(=O)N2CCN(C(=O)c3ccco3)CC2)CC1=O (stereo not drawn),9.39
18,Cc1ccc(CN2C3=NC(=O)CN3c3ccccc32)cc1,6.57
19,Cc1ccc(-c2nc(CN(Cc3cnn(C)c3)C(C)C)c(C)o2)o1,5.42
20,Cn1c(SCC(=O)NC(=O)NCc2ccco2)nnc1-c1ccccc1,3.72
21,C/C(=N\NC(=S)NCc1ccccc1)c1ccccc1F,14
22,CN(C(=O)C1CCOC1)c1nnc(-c2ccncc2)s1 (stereo not drawn),6.92
23,COc1cc(NC(=O)c2cccc(COCC(F)(F)C(F)F)c2)cc(OC)c1OC,2.92

row,Compound,"hERG current change (%, negative = inhibition) at 1uM [%]"
1,Cc1ccc(/C=N/NC(=O)C(=O)N/N=C/c2ccc(C)o2)o1,7.17
2,CCc1ccc(N2C(=O)/C(=C/c3cccs3)N(CC(=O)OC)C2=S)cc1,10.1
3,Cc1[nH]c2ccccc2c1C(=O)CN1CC(C)OC(C)C1 (stereo not drawn),8.25
4,C/C(=N/OC(=O)c1ccc(F)cc1)c1ccc(C)cc1,13.9
5,Brc1ccc(N=Cc2ccccn2)cc1,16.9
6,CCOC(=O)C(Cc1c(F)cccc1Cl)c1ccnc2nc(N)nn12 (stereo not drawn),11
7,Brc1ccc(-c2cn3cccnc3n2)cc1,16.8
8,CCCCNC(=O)c1onc(CSc2cc(C)cc(C)c2)c1C(=O)O,11.7
9,O=C(Nc1ccc(-c2noc(CCc3ccccc3)n2)cc1)c1cccnc1,1.14
10,CC1=C(C#N)CCC(=O)N1Cc1ccc(C)cc1,9.78
11,CCc1ccc(/C(C)=N/NC(=O)CNC(=O)/C=C/c2ccco2)cc1,11.5
12,CCc1ccc2nc(Nc3ncc(C(C)=O)c(C)n3)nc(C)c2c1,12.4
13,COC(=O)c1ccccc1NC(=O)CSc1ccccn1,3.01
14,O=C(CNS(=O)(=O)c1ccccc1Br)OCC(=O)N1CCc2ccccc21,7.62
15,N/C(CCCN1CCCCC1)=N/O,11.2
16,Nc1c(N(Cc2ccco2)C(=O)COc2ccccc2F)c(=O)[nH]c(=O)n1Cc1ccccc1,8.5
17,O=C(Cc1ccccc1)N/N=C/C=C/c1cccc([N+](=O)[O-])c1,6.35
18,COc1ccc(CCNCC(O)Cn2ccc3ccccc32)cc1OC (stereo not drawn),11.7
19,CC(C)(C)NC(=O)CN(C(=O)C(=O)Nc1ccc2c(c1)OCCO2)C(C)(C)C,5.41
20,Cc1nc(Cl)sc1C(=O)Nc1ccc(C(C)(C)C)cc1,9.2
21,COC(=O)c1ccc(OC(C)C(=O)c2ccc(C)cc2)cc1 (stereo not drawn),6.22
22,Cc1cc(Oc2ccc(N)cn2)cc(C)c1Cl,-2.19
23,O=C(CN(c1ccccn1)S(=O)(=O)c1ccc(F)cc1)Nc1ccccc1,2.52

row,Compound,"hERG current change (%, negative = inhibition) at 1uM [%]"
1,Cc1ccc2cc3cc(C(=O)NCCCN4CCCCCC4)oc3nc2c1,-17.1
2,CN(CC(=O)NC1CCCCCC1)S(=O)(=O)c1ccc(Br)cc1,8.35
3,CCOC(=O)N1CCN(Cc2c(F)cccc2F)CC1,17.3
4,O=C(O)COc1ccc(NC(=O)c2ccc3c(c2)C(=O)N(Cc2ccccc2)C3=O)cc1,1.28
5,O=C(CN(C(=O)CNS(=O)(=O)c1ccc(F)cc1)c1ccc(F)cc1)NCc1ccco1,9.15
6,CCOC(=O)N1CCN(C(=O)COc2ccc(Cl)cc2)CC1,6.23
7,CCCCN(C(=O)c1ccc2c(c1)OCO2)c1c(N)n(CC(C)C)c(=O)[nH]c1=O,2.16
8,O=C(NCC(=O)N1CCOCC1)c1ccc(Cl)cc1,-3.08
9,O=C1CC(C(=O)Nc2ccc(O)c(C(=O)O)c2)C(c2ccccc2)O1 (stereo not drawn),-4.73
10,C[C@@H]1CN(C(=O)c2nc3ccc(Cl)cn3c2CN[C@H]2CCCCNC2=O)C[C@H](C)O1,7.56
11,CCCCCCC1CCC(c2nc(-c3ccncc3)no2)CC1 (stereo not drawn),4.29
12,Cc1cc(SCCOc2ccccc2)nc(N)n1,11.6
13,COc1ccccc1-n1c(=S)sc2c(=O)n(Cc3ccco3)c(SC)nc21,-12.1
14,CCOCCCN(CCC#N)C(=O)C1CCN(S(=O)(=O)c2ccc(-n3cnnn3)cc2)CC1,2.51
15,N#CC(C#N)=CNc1cccnc1,15.9
16,CSCCC(NC(=O)/C(=C/c1ccco1)NC(=O)c1ccc(Br)o1)C(=O)O (stereo not drawn),14.2
17,O=C(O)[C@@H]1CCCN(S(=O)(=O)c2cccc3cccnc23)C1,11.2
18,CCN(CC1CCCN(CCc2cccc(F)c2)C1)C(=O)c1cc2ccccc2o1 (stereo not drawn),-64.7
19,O=C(NNC(=S)NCc1ccco1)c1ccc(Cl)s1,8.14
20,CN(C)CCOC(=O)c1ccc2[nH]c3c(c2c1)CSCC3.Cl,16.2
21,COc1ccc(C(=O)C(OC(=O)c2ccc(C)c(NC(C)=O)c2)c2ccccc2)cc1 (stereo not drawn),-6.04
22,COc1ccccc1NS(=O)(=O)c1cc(NC(=O)C2CCCC2)ccc1N1CCOCC1,10.3
23,Cc1cc(-c2ccc(Cl)cc2)c(C#N)c(N)n1,0.592

row,Compound,"hERG current change (%, negative = inhibition) at 1uM [%]"
1,COc1ccc(S(=O)(=O)Nc2cccc(C(C)=O)c2)cc1Br,4.98
2,COCCNC(=O)c1ccc(N2CC3CC(C2)c2cccc(=O)n2C3)c([N+](=O)[O-])c1 (stereo not drawn),16.1
3,CCC(=O)Nc1ccc(C(=O)N/N=C/c2ccc([N+](=O)[O-])cc2)cc1,4.58
4,COc1ccc(S(=O)(=O)N2CCCCC2C(=O)O)cc1 (stereo not drawn),9.29
5,Cc1ccc(S(=O)(=O)N2CCN(C(=O)CCc3c[nH]c4ccccc34)CC2)cc1,6.52
6,CN1CCCC1c1cccnc1 (stereo not drawn),15.8
7,C/C(=N\NC(=O)c1ccc(C)cc1C)c1ccc2c(c1)OCO2,1.41
8,CCOC(=O)[C@H]1[C@H]2COc3ccc(C)cc3[C@@H]2N2C(=O)CN(Cc3ccc(C)cc3)C(=O)[C@@]12C,18.9
9,N#Cc1c(N)n(-c2ccc(C(=O)O)cc2)c2nc3ccccc3nc12,7.7
10,O=C(c1ccccc1)c1ncc[nH]1,18.1
11,Cc1ccc(-n2nc3c(SCCN4CCOCC4)nnc(C)c3c2C)cc1,-5.1
12,N#CCC(=O)Nc1ccc(C(=O)N2CCN(c3ccccn3)CC2)cc1,16.3
13,O=C1Nc2ccccc2O/C1=C\c1c(F)cccc1Cl,14.9
14,CC(C)C(=O)Nc1ccc2nn(-c3ccccc3)nc2c1,8.09
15,NC(=O)C1CCN(C(=O)c2ccc(NS(=O)(=O)c3ccc(F)cc3)cc2)CC1,11
16,CN(C)CCCNC(=O)C1(O)c2cc(Br)ccc2NC(=O)N1c1c(F)cccc1F (stereo not drawn),-2.07
17,Cn1c(=O)c2c(nc3sccn32)n(C)c1=O,-3.93
18,CCOc1ccc(NC(=O)CN(C)C(=O)c2cc3c(s2)CCC(C)C3)cc1OCC (stereo not drawn),14
19,CCOC(=O)c1oc2ccccc2c1NC(=O)c1ccc(S(=O)(=O)N(C)C)cc1,14.1
20,COc1ccc(/C=N/Nc2ccccc2C(=O)O)cc1Cn1cc([N+](=O)[O-])cn1,6.26
21,O=C1NC2(CCCCCC2)C(=O)N1Cc1ccccc1Cl,15.6
